The least precise scores are not listed. Not listed are two conditions whose scores span a narrow range. In variant names, del marks residues removed and ins residues inserted between the two positions. For part of these data: The data file names ogerin without a concentration.

The chains are these.
B1: GPR68, Q15743 (parent)
chain: MGNITADNSSMSCTIDHTIHQTLAPVVYVTVLVVGFPANCLSLYFGYLQIKARNELGVYLCNLTVADLFYICSLPFWLQYVLQHDNWSHGDLSCQVCGILLYENIYISVGFLCCISVDRYLAVAHPFRFHQFRTLKAAVGVSVVIWAKELLTSIYFLMHEEVIEDENQHRVCFEHYPIQAWQRAINYYRFLVGFLFPICLLLASYQGILRAVRRSHGTQKSRKDQIQRLVLSTVVIFLACFLPYHVLLLVRSVWEASCDFAKGVFNAYHFSLLLTSFNCVADPVLYCFVSETTHRDLARLRGACLAFLTCSRTGRAREAYPLGAPEASGKSGAQGEEPELLTKLHPAFQTPNSPGSGGFPTGRLA

Data set [1] covers variants of B1. The data set can be described thus: cAMP reporter score (Enrich2 score, wild type = 0); higher = more signal; HEK293T, FACS bins.
The variants in data set [2] derive from B1. Briefly: surface expression score (Enrich2 score, wild type = 0); higher = more signal; HEK293T, FACS bins.

As to K330_G332del, the cAMP reporter score in data set [1] (pH 5.5) was 1.34; in data set [1] (pH 6), 0.52; in data set [1] (pH 6, modulator: ogerin) it was 1.42; in data set [1] (pH 6.5, modulator: ogerin), 0.897. For the same variant, in data set [2], the surface expression score amounted to 1.11.

For the variant Q334del, the cAMP reporter score in data set [1] (pH 5.5) came out at 0.26; in data set [1] (pH 6) it was 0.347; in data set [1] (pH 6, modulator: ogerin), 0.771; in data set [1] (pH 6.5, modulator: ogerin) it was 0.974. In addition, in data set [2], the surface expression score was -0.554.

In the case of G332_A333insGSG, the cAMP reporter score in data set [1] (pH 5.5) was 0.106; in data set [1] (pH 6), -0.024; in data set [1] (pH 6, modulator: ogerin) it was 0.356; in data set [1] (pH 6.5, modulator: ogerin), 0.896. The surface expression score in data set [2] came out at 0.352.

For the variant G332E, the cAMP reporter score is 0.315 in data set [1] (pH 5.5); -0.426 in data set [1] (pH 6); 0.555 in data set [1] (pH 6, modulator: ogerin); 0.702 in data set [1] (pH 6.5, modulator: ogerin). The surface expression score in data set [2] was found to be 1.08.

As to G332Y, the cAMP reporter score in data set [1] (pH 5.5) was 0.291; in data set [1] (pH 6), -0.455; in data set [1] (pH 6, modulator: ogerin), 0.228; in data set [1] (pH 6.5, modulator: ogerin), -0.56. The surface expression score in data set [2] was -0.014.

For G332V, the cAMP reporter score in data set [1] (pH 5.5) was 0.508; in data set [1] (pH 6), 0.214; in data set [1] (pH 6, modulator: ogerin), -0.074; in data set [1] (pH 6.5, modulator: ogerin), 0.706. In data set [2], the surface expression score is -0.049.

On to G332D, for which the cAMP reporter score in data set [1] (pH 5.5) was -0.123; in data set [1] (pH 6), -0.018; in data set [1] (pH 6, modulator: ogerin), -0.451; in data set [1] (pH 6.5, modulator: ogerin), -0.103. In addition, the surface expression score in data set [2] is -0.099.

In the case of G332A, the cAMP reporter score was 1.01 in data set [1] (pH 5.5); -0.007 in data set [1] (pH 6); 0.771 in data set [1] (pH 6, modulator: ogerin); 0.641 in data set [1] (pH 6.5, modulator: ogerin). Also, in data set [2], the surface expression score was 0.58.

For G332K, the cAMP reporter score in data set [1] (pH 5.5) was 0.112; in data set [1] (pH 6), -0.169; in data set [1] (pH 6, modulator: ogerin), 0.486; in data set [1] (pH 6.5, modulator: ogerin), 0.009. Moreover, the surface expression score in data set [2] came out at 0.537.

G332H: the cAMP reporter score in data set [1] (pH 5.5) was 0.611; in data set [1] (pH 6), 0.361; in data set [1] (pH 6, modulator: ogerin) it was -0.196; in data set [1] (pH 6.5, modulator: ogerin), -0.275. Further, the surface expression score in data set [2] was found to be 1.42.

As to G332M, the cAMP reporter score in data set [1] (pH 5.5) was found to be 0.932; in data set [1] (pH 6, modulator: ogerin), 0.916. Also, the surface expression score in data set [2] amounted to 2.83.

Regarding G332L, the cAMP reporter score in data set [1] (pH 5.5) is -0.373; in data set [1] (pH 6), 0.201; in data set [1] (pH 6, modulator: ogerin) it was -0.599; in data set [1] (pH 6.5, modulator: ogerin), -0.401. Moreover, the surface expression score in data set [2] was -0.476.

Regarding G332S, the cAMP reporter score in data set [1] (pH 5.5) was 0.756; in data set [1] (pH 6), 0.394; in data set [1] (pH 6, modulator: ogerin) it was 1.2; in data set [1] (pH 6.5, modulator: ogerin) it was 0.274. Moreover, the surface expression score in data set [2] is 0.415.

In the case of G332W, the cAMP reporter score in data set [1] (pH 5.5) is 0.659; in data set [1] (pH 6), -0.217; in data set [1] (pH 6, modulator: ogerin) it was 0.526; in data set [1] (pH 6.5, modulator: ogerin), 0.294. Also, the surface expression score in data set [2] amounted to 0.597.

Turning to G332R, the cAMP reporter score in data set [1] (pH 5.5) was found to be 1.15; in data set [1] (pH 6) it was 0.461; in data set [1] (pH 6, modulator: ogerin), 1.75; in data set [1] (pH 6.5, modulator: ogerin), 1.4. For the same variant, the surface expression score in data set [2] was 1.

With G332F, the cAMP reporter score in data set [1] (pH 5.5) was 1.08; in data set [1] (pH 6), -0.963; in data set [1] (pH 6, modulator: ogerin), 0.63; in data set [1] (pH 6.5, modulator: ogerin), 0.56. The surface expression score in data set [2] was determined as 0.969.

For the variant G332N, the cAMP reporter score in data set [1] (pH 5.5) is 0.255; in data set [1] (pH 6) it was -0.258; in data set [1] (pH 6, modulator: ogerin) it was 0.326; in data set [1] (pH 6.5, modulator: ogerin), 0.188. The surface expression score in data set [2] stood at 0.179.

Take G332C: the cAMP reporter score was 0.419 in data set [1] (pH 5.5); -0.044 in data set [1] (pH 6); 0.528 in data set [1] (pH 6, modulator: ogerin); 0.75 in data set [1] (pH 6.5, modulator: ogerin). The surface expression score in data set [2] turned out to be 0.602.

As to G332I, the cAMP reporter score was found to be 1.37 in data set [1] (pH 5.5); 0.064 in data set [1] (pH 6); 1.59 in data set [1] (pH 6, modulator: ogerin); 0.075 in data set [1] (pH 6.5, modulator: ogerin). Moreover, the surface expression score in data set [2] is -0.237.

As to G332Q, the cAMP reporter score in data set [1] (pH 5.5) came out at 0.795; in data set [1] (pH 6) it was 0.673; in data set [1] (pH 6, modulator: ogerin) it was 1.04; in data set [1] (pH 6.5, modulator: ogerin), 1.05. For the same variant, the surface expression score in data set [2] stood at 1.2.

For G332P, the cAMP reporter score in data set [1] (pH 5.5) was determined as 0.514; in data set [1] (pH 6) it was 0.588; in data set [1] (pH 6, modulator: ogerin), 0.629; in data set [1] (pH 6.5, modulator: ogerin), 0.262. In addition, the surface expression score in data set [2] stood at 0.772.

Turning to G332T, the cAMP reporter score in data set [1] (pH 5.5) is -0.053; in data set [1] (pH 6), -1.14; in data set [1] (pH 6, modulator: ogerin), -0.266; in data set [1] (pH 6.5, modulator: ogerin), -0.456. For the same variant, in data set [2], the surface expression score was -0.117.

On to G332del, for which the cAMP reporter score in data set [1] (pH 5.5) is 0.795; in data set [1] (pH 6), 0.111; in data set [1] (pH 6, modulator: ogerin), 0.888; in data set [1] (pH 6.5, modulator: ogerin) it was 0.669. The surface expression score in data set [2] came out at 1.62.

As for G335_E336del, the cAMP reporter score in data set [1] (pH 5.5) stood at 0.704; in data set [1] (pH 6), 0.848; in data set [1] (pH 6, modulator: ogerin) it was 0.36; in data set [1] (pH 6.5, modulator: ogerin), 0.789. In addition, the surface expression score in data set [2] was found to be 0.875.

For the variant A333_Q334insG, the cAMP reporter score in data set [1] (pH 5.5) is -0.293; in data set [1] (pH 6), 0.203; in data set [1] (pH 6, modulator: ogerin), 0.473; in data set [1] (pH 6.5, modulator: ogerin), 1.1. Moreover, the surface expression score in data set [2] is 0.854.

Turning to K330_S331insGSG, the cAMP reporter score in data set [1] (pH 5.5) was 0.198; in data set [1] (pH 6), -0.117; in data set [1] (pH 6, modulator: ogerin) it was 0.175; in data set [1] (pH 6.5, modulator: ogerin), 0.308. In addition, the surface expression score in data set [2] came to 0.555.

Regarding G332_A333insGS, the cAMP reporter score is 0.392 in data set [1] (pH 5.5); -0.097 in data set [1] (pH 6); 0.638 in data set [1] (pH 6, modulator: ogerin); 0.355 in data set [1] (pH 6.5, modulator: ogerin). In data set [2], the surface expression score is 0.72.

With Q334_E336del, the cAMP reporter score is -0.05 in data set [1] (pH 5.5); 0.301 in data set [1] (pH 6); 0.107 in data set [1] (pH 6, modulator: ogerin); 0.284 in data set [1] (pH 6.5, modulator: ogerin). Also, the surface expression score in data set [2] was found to be 0.375.

Take S331_G332insGS: the cAMP reporter score was determined as 0.723 in data set [1] (pH 5.5); 1.06 in data set [1] (pH 6); 0.545 in data set [1] (pH 6, modulator: ogerin); 0.989 in data set [1] (pH 6.5, modulator: ogerin). Further, the surface expression score in data set [2] was determined as 0.412.

Consider S331_G332insG, for which the cAMP reporter score worked out at 0.283 in data set [1] (pH 5.5); 0.424 in data set [1] (pH 6, modulator: ogerin); 0.489 in data set [1] (pH 6.5, modulator: ogerin). For the same variant, in data set [2], the surface expression score was 0.879.

The record behind these values is the GPR68 mutational scans of Howard et al. (2025).
